Among the data in US8633183B2 (priority 2010, dated 2014) are EC50 values, retold here.

The test system of assay [1] is BT474. The assay is described as follows: cells. The settings on record: Homo sapiens, BT-474, read-out: EC50 BT474.
The test system of assay [2] is U87MG human glioblastoma cell line. The assay is described as follows: cells. The conditions noted are these: U-87 MG, read-out: EC50 U87MG.

SMILES strings stand for the structures. pEC50: −log10 of the molar value.

One may read the pEC50 as the negative decadic logarithm of the EC50, by convention in mol/L. For the compound `CCc1ncnc(-c2cc(F)c(C(=O)N3CCN(C)CC3)c(F)c2)c1C#Cc1ccc(N)nc1` [Example E-1], the pEC50 in assay [1] is 7.74; in assay [2] it was 7.33. For the compound `CCc1ncnc(-c2cc(F)c(C(=O)N3CCN(CC)CC3)c(F)c2)c1C#Cc1ccc(N)nc1` [Example E-3], the pEC50 is 7.83 in assay [1] and 7.33 in assay [2].

Turning to `CCCN1CCN(C(=O)c2c(F)cc(-c3ncnc(CC)c3C#Cc3ccc(N)nc3)cc2F)CC1` [Example E-4], the pEC50 in assay [1] is 7.56; in assay [2], 7.12.

On to `CCc1ncnc(-c2cc(F)c(C(=O)N3CCN(CCOC)CC3)c(F)c2)c1C#Cc1ccc(N)nc1` [Example E-5], for which the pEC50 in assay [1] was 7.56; in assay [2], 7.31. Take `CCc1ncnc(-c2cc(F)c(C(=O)N3CCN(CC4CC4)CC3)c(F)c2)c1C#Cc1ccc(N)nc1` [Example E-7]: the results for the pEC50 in assay [1] and in assay [2] were 7.78 and 6.88, respectively. Consider `CCc1ncnc(-c2cc(F)c(C(=O)N3CCC(N4CCOCC4)CC3)c(F)c2)c1C#Cc1ccc(N)nc1` [Example E-9], for which the figures for the negative-log EC50 (pEC50) in assay [1] and in assay [2] were 8.01 and 7.89, respectively. `CCc1ncnc(-c2cc(F)c(C(=O)N3CCNCC3)c(F)c2)c1C#Cc1ccc(N)nc1` [Example E-14]: the pEC50 in assay [1] is 7.78; in assay [2], 7.23. The like results for `CCc1ncnc(-c2ccc(C(=O)N3CCC4(CC3)OCCCO4)c(Cl)c2)c1C#Cc1ccc(N)nc1` [Example E-19] were, in that order, 7.52 and 7.52. Regarding `CCc1ncnc(-c2ccc(C(=O)N3CCC(N4CCN(C)CC4)CC3)c(Cl)c2)c1C#Cc1ccc(N)nc1` [Example E-70], the pEC50 in assay [1] is 7.54; in assay [2] it was 7.13. Consider `CCc1ncnc(-c2ccc(C(=O)N3CCN4CCC[C@@H]4C3)c(F)c2)c1C#Cc1ccc(N)nc1` [Example E-140], for which the pEC50 in assay [1] is 7.86; in assay [2] it was 7.41. `CCc1ncnc(-c2ccc(C(=O)N3CCN4CCC[C@H]4C3)c(Cl)c2)c1C#Cc1ccc(N)nc1` [Example E-141]: in assay [2], the pEC50 was 7.48. As to `CCc1ncnc(-c2ccc(C(=O)N3CCN4CCC[C@H]4C3)c(F)c2)c1C#Cc1ccc(N)nc1` [Example E-142], the pEC50 in assay [1] is 7.79; in assay [2] it was 7.73.
